# Experimental data as given in the RNAGym collection of RNA variant scans (doi:10.7554/elife.90254).
# The source gives no read counts; variants with many changes may rest on few reads.
# B1: LINE1-mini (parent)
# chain: GGCAGAGCUCAACACAGCGUGGCAAAGUGGCUGUGGCUAGACUGCC
# Variants of: B1
# Assay: self-cleavage, relative activity (ratio to wild type); higher = more cleavage; in vitro, sequencing; the parent is a self-cleaving ribozyme
row,Variant,self-cleavage
1,A11G C23G G30U U34A G35A,0.02
2,A11G C15U G29C U32C,0.08
3,A11G C13U C15A,0.01
4,A11C G17C U34A,0.03
5,A11C A14C G17U A25G,0
6,A11C C31G G35U,0.02
7,A11G A16U G22U U28G U43A,0
8,A11C A12G C13G G19C C37U A39U A41G,0.01
9,A11C G19C G22C,0.01
10,A11C U20G G36C,0
11,A11C A16C G30A A41G G44U,0.02
12,A11C C15A A24C A25G U38C,0.02
13,A11G A14G A24C G44A,0.05
14,A11G C15A C18A C23G G29U C42U U43A C45G,0.01
15,A11C G21C C42U C46U,0
16,A11G A12C C42A,0
17,A11C G19C C37U,0.01
18,A11G C23G A41G,0
19,A11G C23G A41C,0.02
20,A11G C23U U34C,0.03
21,A11C G27C C37A,0
22,C10U U20C U38C,0.11
23,A11C G19A U28C G30A G33A,0.02
24,A11C G35A U38C,0.02

row,Variant,self-cleavage
1,A11G C13G G21U C42A,0.01
2,A11C A12G G29A G30C C37U,0.01
3,A11C C15U C46U,0.07
4,C10U U20G C23A G33C,0.02
5,A11C G19U C23U U34C C37G,0.01
6,A11C G33C G35C,0.03
7,A11G A12C G30A,0
8,A11G C23U A39G,0.01
9,A11C C13G A25C G35U C42U,0.01
10,A11G C13A C15A G29C,0.02
11,A11G A14G G21U C45U,0.05
12,A11C A12G G21C U28A U38C A39U,0
13,A11C G36U G44C,0.02
14,A11C A24C U32A,0.01
15,A11C G22C C23A A41G,0.05
16,A11C C15G G22U,0.01
17,A11C A16C U28G C45A,0
18,A11G A12G G21A C31U,0.01
19,A11G A41G G44C,0.03
20,A11G G17A G21C U32A,0
21,C10U U34C G40A C42U U43A,0.04
22,A11C U34C G36A C37A,0.07
23,C10U U28C G29U U32G,0.06
24,A11C G27A A39U,0.03

row,Variant,self-cleavage
1,A11G C23A G27A U28C C37U,0.02
2,A11C G19A A25U,0.03
3,A11C A39C U43C,0
4,A11G C13G C18A G29U,0.01
5,A11C U32C C37A,0.03
6,A11C A26C U38G C45G,0
7,A11C G27C C46U,0.09
8,A11C A14U C15G G44U C45A,0
9,A11C C23U A39G C46G,0
10,A11C A41U U43G,0
11,A11G C23A C37U,0.02
12,A11C G19C G36C G40A A41G,0.02
13,A11C C15A A26C,0.02
14,A11G A12C C23G C42G,0
15,A11G A24U G30U C31U U32G C42U,0.01
16,A11C C13G C18U G22U G27A G30U,0
17,A11G C18G G27A C37U,0.01
18,A11C A16G U38G G40C,0
19,A11G C15U G27U U32G A41G,0.01
20,A11C C13A U34A,0.01
21,A11C U20G G35U A39U A41U,0
22,A11G C13U G36U,0.01
23,A11G C13A C31A G35C,0.03
24,A11C G22U G44U,0.03

row,Variant,self-cleavage
1,A11C G22U G44C,0.02
2,A11C G36U C42G,0.03
3,C10U U20C G40C,0.03
4,A11C G17C G30C,0.02
5,A11G C13U C31A,0.04
6,A11G A24G G33A G40U,0.01
7,A11C U20C G29C G44A,0
8,A11C C23U G29C G44U,0.02
9,A11C A14C A26C G36C,0.02
10,A11C C23U A39C C42U,0.02
11,A11C G27U G35U,0.05
12,A11C G19A U20A U28G G30C G44A,0.01
13,A11C A12G C23U G33A,0.02
14,A11C G35C C37G,0.03
15,A11C U20A G33U C42A G44U C46U,0.01
16,A11G A25C C46U,0
17,A11C G30A G36A,0.01
18,A11G C18A A24G U38G,0.01
19,C10U U20C C45U,0.09
20,A11C A14G A41U,0.05
21,A11G A14U G30U,0.01
22,A11G A16U G22A A24G C37U,0.01
23,A11G C18G G27C G35C C42U U43A,0.02
24,A11C C18U A24U G30A,0.21

row,Variant,self-cleavage
1,A11C G33C C45G,0
2,A11C G21U C23A A39U,0.03
3,A11C G17C G27A U32G G40C,0.01
4,A11C G36A G44C,0.02
5,A11C A26G G40U,0
6,A11C A12U A39C,0.02
7,A11C G21U A39U,0.02
8,A11G A14U C42A,0.01
9,A11G C23G G44U C46G,0
10,A11C C31A G33A U34G A39G U43A,0.01
11,A11C C15A A25G,0.05
12,A11C G22A A25G G40U,0.01
13,A11C C13U G19U A41C,0.02
14,A11G C15A C18A G22U G40U,0.01
15,A11G A14C C18G G19C U28G,0.01
16,A11G C15A C42U,0.01
17,A11G A39U C46A,0
18,A11G A14C U34G C37U,0
19,A11C G17C G35U,0
20,A11C C23A A24C,0.02
21,A11G A12C C23G G27U G33C,0
22,A11G C18U C31G U32C,0.04
23,A11C C13A C37A,0
24,A11C A14C U34A C42U,0.02

row,Variant,self-cleavage
1,A11C A25C G33U,0.02
2,C10U U32C G35U G40U,0.01
3,C10U U20G C23A A24C,0.34
4,A11C A16G C42U,0.02
5,A11G A26G C31U,0.02
6,A11C G29U U32A U34C C45A,0.01
7,A11C G29A A41U,0.04
8,C10U U28A G29A G35A A41G,0.02
9,A11C C13U C23U C37U C45U,0
10,A11C G21U U43G,0.01
11,A11C C37G C42A,0.01
12,A11C C31G U32A G44C,0.01
13,A11G A12U U20G G40U,0.02
14,A11G C31U G36C C45A,0.01
15,A11C C13U A16C C31G,0.02
16,A11C A25U A26G,0.06
17,A11C C15G C37U,0.01
18,A11C A14C G17C C23A C46A,0.02
19,A11C C15U A24G U28G G33A,0.02
20,A11C U34A C45U,0.01
21,A11C G30U G33A,0.02
22,A11G A39C G40U G44C C45A,0
23,A11C A41U C42G,0
24,A11G C13U C45U,0.05

row,Variant,self-cleavage
1,A11G A25G G36A,0.01
2,A11C U20A G21C G35A U43A,0
3,A11G C31G G33C,0.01
4,A11C A12U A14C,0.07
5,A11C C45A C46U,0.02
6,A11C C15A U32C U34A,0.03
7,A11G C18A G44C,0.02
8,C10U U20C G29C G35C,0.01
9,A11C C18A G21A G27C,0.02
10,A11C U20C G27U G33A A39G,0.01
11,A11G A25U G29U G40U,0.03
12,A11C A26U G29U,0.02
13,A11G A16U C31G A41G C42A,0
14,A11G C18A G29U C46A,0.04
15,A11C C15U G19C G27U,0.01
16,C10U U20A C37U,0.02
17,A11C G29A C37G,0.01
18,C10U U38A G44U C46G,0.02
19,A11C G27C G36C G40A,0.02
20,C10U U38A G40U,0.03
21,A11C C13A U20C C37U C42G,0.02
22,A11C A16G A24C G44U C46U,0.01
23,A11C A24G A39G,0.03
